Experimental findings from paper PMC10287950 are described below.

The chains behind the UniProt entries cited, without tags or fusion partners. Where a name states a change or a piece, a line headed by the entry shows the natural chain unless it says otherwise. A line that says so, or that is headed by a name, gives the form on record, which may keep a tag or linker. Residues count along the entry.
UniProt Q5JSZ5: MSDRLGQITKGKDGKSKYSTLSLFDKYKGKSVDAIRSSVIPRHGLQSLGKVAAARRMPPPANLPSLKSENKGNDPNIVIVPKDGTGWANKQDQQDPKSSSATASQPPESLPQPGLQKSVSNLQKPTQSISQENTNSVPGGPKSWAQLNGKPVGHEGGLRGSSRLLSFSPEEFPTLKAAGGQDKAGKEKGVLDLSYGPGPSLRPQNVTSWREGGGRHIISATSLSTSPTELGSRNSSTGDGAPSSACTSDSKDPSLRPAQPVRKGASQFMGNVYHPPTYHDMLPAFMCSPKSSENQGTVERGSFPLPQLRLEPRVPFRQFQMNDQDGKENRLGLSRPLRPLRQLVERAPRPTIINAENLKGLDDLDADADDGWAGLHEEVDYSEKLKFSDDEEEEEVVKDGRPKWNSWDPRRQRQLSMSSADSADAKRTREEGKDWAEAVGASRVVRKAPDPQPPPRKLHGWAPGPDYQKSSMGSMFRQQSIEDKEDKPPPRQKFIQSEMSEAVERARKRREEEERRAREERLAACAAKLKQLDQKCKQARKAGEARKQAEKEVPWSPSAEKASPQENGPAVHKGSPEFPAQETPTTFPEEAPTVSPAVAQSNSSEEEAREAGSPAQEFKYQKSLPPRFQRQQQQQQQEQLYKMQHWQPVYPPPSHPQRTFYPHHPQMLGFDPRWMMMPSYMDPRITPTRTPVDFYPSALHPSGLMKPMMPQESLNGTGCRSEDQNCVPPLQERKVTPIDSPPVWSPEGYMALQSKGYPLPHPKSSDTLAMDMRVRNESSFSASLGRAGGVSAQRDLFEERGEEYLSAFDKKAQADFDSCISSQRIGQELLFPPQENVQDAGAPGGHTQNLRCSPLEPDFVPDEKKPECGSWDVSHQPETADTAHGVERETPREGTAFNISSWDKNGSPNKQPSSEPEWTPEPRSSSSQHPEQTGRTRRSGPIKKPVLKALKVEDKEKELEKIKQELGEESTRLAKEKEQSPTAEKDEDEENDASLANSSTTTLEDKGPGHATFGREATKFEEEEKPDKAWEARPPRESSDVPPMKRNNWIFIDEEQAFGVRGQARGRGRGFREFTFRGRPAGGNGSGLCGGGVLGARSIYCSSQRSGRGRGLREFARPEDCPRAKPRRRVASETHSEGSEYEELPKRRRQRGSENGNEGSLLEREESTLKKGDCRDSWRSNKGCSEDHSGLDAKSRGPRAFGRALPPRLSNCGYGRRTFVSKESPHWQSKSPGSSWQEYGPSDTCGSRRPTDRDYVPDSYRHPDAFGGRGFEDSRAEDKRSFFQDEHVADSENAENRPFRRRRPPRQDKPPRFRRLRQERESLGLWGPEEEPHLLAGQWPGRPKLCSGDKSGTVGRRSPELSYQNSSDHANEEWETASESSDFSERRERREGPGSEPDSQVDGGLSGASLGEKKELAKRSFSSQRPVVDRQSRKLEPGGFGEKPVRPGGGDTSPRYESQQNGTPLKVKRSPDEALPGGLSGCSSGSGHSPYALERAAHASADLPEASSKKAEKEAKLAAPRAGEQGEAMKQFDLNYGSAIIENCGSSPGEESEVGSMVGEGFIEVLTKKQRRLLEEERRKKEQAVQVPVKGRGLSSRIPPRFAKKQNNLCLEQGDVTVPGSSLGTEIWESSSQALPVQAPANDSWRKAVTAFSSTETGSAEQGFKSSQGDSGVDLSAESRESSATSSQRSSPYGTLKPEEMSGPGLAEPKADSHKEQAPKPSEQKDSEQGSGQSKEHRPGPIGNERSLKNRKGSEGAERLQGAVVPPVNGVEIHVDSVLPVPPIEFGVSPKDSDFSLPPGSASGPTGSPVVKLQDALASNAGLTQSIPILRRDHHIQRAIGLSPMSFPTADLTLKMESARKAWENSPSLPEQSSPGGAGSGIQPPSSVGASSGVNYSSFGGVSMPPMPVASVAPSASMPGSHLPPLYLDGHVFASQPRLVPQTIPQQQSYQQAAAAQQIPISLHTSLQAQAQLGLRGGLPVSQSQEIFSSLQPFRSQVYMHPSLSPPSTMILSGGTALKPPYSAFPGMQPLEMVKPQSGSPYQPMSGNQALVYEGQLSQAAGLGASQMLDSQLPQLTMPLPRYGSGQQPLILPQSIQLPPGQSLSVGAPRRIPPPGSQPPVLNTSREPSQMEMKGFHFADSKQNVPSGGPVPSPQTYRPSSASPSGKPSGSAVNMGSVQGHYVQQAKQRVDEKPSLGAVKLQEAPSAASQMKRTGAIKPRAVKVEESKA
PRRC2B 1-450 amino acids region (truncated P1): residues 1-450 of Q5JSZ5
FLAG-tagged truncated PRRC2B with eIF4G2/eIF3 binding region removed (del450): residues 451-2229 of Q5JSZ5
FLAG-tagged PRRC2B fragment P2: residues 751-1500 of Q5JSZ5
UniProt P51114: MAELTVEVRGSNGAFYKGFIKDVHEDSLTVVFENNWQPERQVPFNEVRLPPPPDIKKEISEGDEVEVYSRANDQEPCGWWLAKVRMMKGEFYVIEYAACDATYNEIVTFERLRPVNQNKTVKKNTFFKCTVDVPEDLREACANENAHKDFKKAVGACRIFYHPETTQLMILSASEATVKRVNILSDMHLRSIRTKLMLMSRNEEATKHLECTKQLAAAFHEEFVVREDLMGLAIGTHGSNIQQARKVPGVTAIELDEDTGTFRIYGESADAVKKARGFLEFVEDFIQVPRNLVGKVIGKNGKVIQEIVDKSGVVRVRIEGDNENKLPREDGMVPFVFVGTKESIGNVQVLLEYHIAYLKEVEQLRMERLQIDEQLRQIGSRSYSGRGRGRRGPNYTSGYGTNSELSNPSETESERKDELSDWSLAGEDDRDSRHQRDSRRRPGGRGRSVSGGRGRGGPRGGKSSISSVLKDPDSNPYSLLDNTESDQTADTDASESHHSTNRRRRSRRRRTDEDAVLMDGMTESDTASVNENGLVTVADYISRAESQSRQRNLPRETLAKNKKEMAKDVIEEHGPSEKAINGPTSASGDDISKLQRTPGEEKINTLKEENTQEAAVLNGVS

Results are given in words; binding and its absence hold for the method and conditions named. Binding seen in cells or lysates may run through a third protein. Some binding calls cover weakened binding; strength is not graded here.

In experiment [1] the target is Proline-Rich Coiled-coil 2B (PRRC2B), endogenous (human (endogenous in HEK293T)) (UniProt Q5JSZ5). Put plainly: co-IP; IP of endogenous PRRC2B from HEK293T lysate with rabbit anti-PRRC2B antibody and protein A Dynabeads, without RNase T1 treatment; western blot.
The target is the same in experiment [2]. The experiment can be described thus: co-IP; IP of PRRC2B from HEK293T lysate after RNase T1 digestion of RNA to less than 35 nt (Supplementary Figure S5B, C).
Experiment [3] deals with FLAG-tagged PRRC2B fragment P2 (human) (UniProt Q5JSZ5). Put plainly: co-IP; IP of FLAG-tagged PRRC2B or its fragments from transfected HEK293T lysate with anti-DYKDDDDK magnetic agarose; western blot; RNase treatment not told for these panels.
In experiment [4] the target is FLAG-tagged full-length PRRC2B (human) (UniProt Q5JSZ5). The experiment is described as above.
Experiment [5] deals with FLAG-tagged truncated PRRC2B with eIF4G2/eIF3 binding region removed (del450) (human) (UniProt Q5JSZ5). The experiment can be described thus: co-IP; IP of FLAG-tagged full-length PRRC2B or del450 from HEK293T lysate with anti-DYKDDDDK magnetic agarose upon RNase T1 treatment (5 U/μl); western blot.
The target in experiment [6] is FLAG-tagged full-length PRRC2B (human) (UniProt Q5JSZ5). The description is as above.
Experiment [7] addresses PRRC2B 1-450 amino acids region (truncated P1) (human) (UniProt Q5JSZ5). Put plainly: co-IP; IP of FLAG-tagged PRRC2B or its fragments from transfected HEK293T lysate with anti-DYKDDDDK magnetic agarose; western blot; RNase treatment not told for these panels.

On to “3' UTR-binding protein FXR1 (from UniProt P51114 1-621)”, for which the binding result in experiment [1], in experiment [2], in experiment [3] and in experiment [4] was “binds” throughout.

B1: eukaryotic translation initiation factor 4G2 (eIF4G2) (protein, UniProt P78344 1-907)
chain: MESAIAEGGASRFSASSGGGGSRGAPQHYPKTAGNSEFLGKTPGQNAQKWIPARSTRRDDNSAANNSANEKERHDAIFRKVRGILNKLTPEKFDKLCLELLNVGVESKLILKGVILLIVDKALEEPKYSSLYAQLCLRLAEDAPNFDGPAAEGQPGQKQSTTFRRLLISKLQDEFENRTRNVDVYDKRENPLLPEEEEQRAIAKIKMLGNIKFIGELGKLDLIHESILHKCIKTLLEKKKRVQLKDMGEDLECLCQIMRTVGPRLDHERAKSLMDQYFARMCSLMLSKELPARIRFLLQDTVELREHHWVPRKAFLDNGPKTINQIRQDAVKDLGVFIPAPMAQGMRSDFFLEGPFMPPRMKMDRDPLGGLADMFGQMPGSGIGTGPGVIQDRFSPTMGRHRSNQLFNGHGGHIMPPTQSQFGEMGGKFMKSQGLSQLYHNQSQGLLSQLQGQSKDMPPRFSKKGQLNADEISLRPAQSFLMNKNQVPKLQPQITMIPPSAQPPRTQTPPLGQTPQLGLKTNPPLIQEKPAKTSKKPPPSKEELLKLTETVVTEYLNSGNANEAVNGVREMRAPKHFLPEMLSKVIILSLDRSDEDKEKASSLISLLKQEGIATSDNFMQAFLNVLDQCPKLEVDIPLVKSYLAQFAARAIISELVSISELAQPLESGTHFPLFLLCLQQLAKLQDREWLTELFQQSKVNMQKMLPEIDQNKDRMLEILEGKGLSFLFPLLKLEKELLKQIKLDPSPQTIYKWIKDNISPKLHVDKGFVNILMTSFLQYISSEVNPPSDETDSSSAPSKEQLEQEKQLLLSFKPVMQKFLHDHVDLQVSALYALQVHCYNSNFPKGMLLRFFVHFYDMEIIEEEAFLAWKEDITQEFPGKGKALFQVNQWLTWLETAEEEESEEEAD
With B1, the binding result in experiment [5] is reported as “no binding”; in experiment [6], “binds”; in experiment [1], “binds”; in experiment [2], “binds”; in experiment [7], “binds”; in experiment [3], “no binding”. Also, in experiment [4], the binding entry is on record as “binds”.
